Some of the results follow. Many values rest on one well or one pass, so single values are uncertain.
What follows are molecules tested on COLO800 (assay: cell count relative to DMSO control; melanoma cells; higher = more viable cells). Details: library dose: low library concentration; 72 h.
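Also: cell number obtained by counting DAPI-stained nuclei in high-throughput microscope images with image analysis software, screen run in 1,536-well plates.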

Row | Structure (SMILES) | cell count
1 | C[C@]12O[C@H](C[C@]1(O)CO)n1c3ccccc3c3c4c(c5c6ccccc6n2c5c31)CNC4=O [Lestaurtinib] + O=C(O)[C@@H]1[O][Sb](=[O])([O][Sb]2(=[O])[O][C@H]([C@H](O)CO)[C@H](O)[C@H](C(=O)O)[O]2)[O][C@H]([C@H](O)CO)[C@@H]1O [stibogluconate] (first compound 0.004 µM, partner dose 2 µM) | 64%
2 | C[C@]12O[C@H](C[C@]1(O)CO)n1c3ccccc3c3c4c(c5c6ccccc6n2c5c31)CNC4=O [Lestaurtinib] + O=C(O)c1ccc2c(c1)nc(Nc1cccc(Cl)c1)c1ccncc12 [CX4945] (first compound 0.004 µM, partner dose 0.4 µM) | 113%
3 | C[As](C)SC[C@H](NC(=O)CC[C@H](N)C(=O)O)C(=O)NCC(=O)O [Darinaparsin] + O=C1NC(=O)/C(=C/c2ccc(-c3ccc(F)cc3O)o2)S1 [AS252424] (first compound 0.4 µM, partner dose 1 µM) | 115%
4 | C[C@]12O[C@H](C[C@]1(O)CO)n1c3ccccc3c3c4c(c5c6ccccc6n2c5c31)CNC4=O [Lestaurtinib] + CC(C)C[C@H](NC(=O)[C@H](Cc1ccccc1)NC(=O)c1cnccn1)B(O)O [Bortezomib] (first compound 0.004 µM, partner dose 0.001 µM) | 89.6%
5 | C[C@]12O[C@H](C[C@]1(O)CO)n1c3ccccc3c3c4c(c5c6ccccc6n2c5c31)CNC4=O [Lestaurtinib] + N.N.[Cl][Pt][Cl] [cisplatin] (first compound 0.004 µM, partner dose 1.6 µM) | 63.1%
6 | C[C@]12O[C@H](C[C@]1(O)CO)n1c3ccccc3c3c4c(c5c6ccccc6n2c5c31)CNC4=O [Lestaurtinib] + NC1(c2ccc(-c3nc4ccn5c(=O)[nH]nc5c4cc3-c3ccccc3)cc2)CCC1 [MK2206] (first compound 0.004 µM, partner dose 0.4 µM) | 84.4%
7 | C[C@]12O[C@H](C[C@]1(O)CO)n1c3ccccc3c3c4c(c5c6ccccc6n2c5c31)CNC4=O [Lestaurtinib] + C[C@]1(O)C[C@@H](c2nc(-c3ccc4ccc(-c5ccccc5)nc4c3)c3c(N)nccn32)C1 [OSI906] (first compound 0.004 µM, partner dose 0.4 µM) | 51.3%
8 | C[C@]12O[C@H](C[C@]1(O)CO)n1c3ccccc3c3c4c(c5c6ccccc6n2c5c31)CNC4=O [Lestaurtinib] + C=C(c1ccc(C(=O)O)cc1)c1cc2c(cc1C)C(C)(C)CCC2(C)C [Bexarotene] (first compound 0.004 µM, partner dose 2 µM) | 99.3%
9 | C[C@]12O[C@H](C[C@]1(O)CO)n1c3ccccc3c3c4c(c5c6ccccc6n2c5c31)CNC4=O [Lestaurtinib] + CN1CCN(c2ccc3nc(-c4c(N)c5c(F)cccc5[nH]c4=O)[nH]c3c2)CC1 [Dovitinib] (first compound 0.004 µM, partner dose 0.1 µM) | 86.5%
10 | C[C@]12O[C@H](C[C@]1(O)CO)n1c3ccccc3c3c4c(c5c6ccccc6n2c5c31)CNC4=O [Lestaurtinib] + CCCCCCCCc1ccc(CCC(N)(CO)CO)cc1 [fingolimod] (first compound 0.004 µM, partner dose 2 µM) | 96.2%
11 | C[C@]12O[C@H](C[C@]1(O)CO)n1c3ccccc3c3c4c(c5c6ccccc6n2c5c31)CNC4=O [Lestaurtinib] + CNC(=O)c1cc(Oc2ccc(NC(=O)Nc3ccc(Cl)c(C(F)(F)F)c3)cc2)ccn1 [sorafenib] (first compound 0.004 µM, partner dose 0.4 µM) | 117%
12 | N.N.[Cl][Pt][Cl] [cisplatin] + CO[C@H]1C[C@@H]2CC[C@@H](C)[C@@](O)(O2)C(=O)C(=O)N2CCCC[C@H]2C(=O)O[C@H]([C@H](C)C[C@@H]2CC[C@@H](OCCO)[C@H](OC)C2)CC(=O)[C@H](C)/C=C(\C)[C@@H](O)[C@@H](OC)C(=O)[C@H](C)C[C@H](C)/C=C/C=C/C=C/1C [everolimus] (first compound 1.6 µM, partner dose 0.02 µM) | 43.5%

Source: the supplement of paper PMC4604168 (melanoma cell lines)
